Test results: PubChem BioAssay AID504444 (National Center for Advancing Translational Sciences (NCATS), 2011)
Hit rate of the full screen: of about 360,000 compounds, about 7,500 (2.1%) were called active. About 20% were inconclusive and are not listed. The call rests on the fitted dose curve; in most records, active means well fitted inhibition curve with a large enough effect; inconclusive means small, poorly fitted or top-dose-only effect, or effect the other way; inactive means flat fitted curve, though single readings scatter. Only a part is listed here, and it is no random draw. Some structures have more than one record in an assay (separate samples or runs), and their calls can disagree.

Experiment: Nrf2 qHTS screen for inhibitors; further: nearly all actives have a fitted effect of over 60% in size
Settings: A549 ARE-Fluc reporter, luciferase luminescence, 18-24 h; series mostly up to 46 µM; activity change, negative = inhibition: at the top concentration
How it was run: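 Reporter: ARE-Fluc in A549. Exposure: 18-24 h, 37 °C, 5% CO2, 5% FBS OPTI-MEM. Readouts: fluorescent cytotoxicity (CellTiter-Fluor), then luminescent Nrf2 signal after BugLite.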
On the % scale 0 is the no-effect control and ±100 the full control effect; potency means the concentration at half of the fitted maximal effect.

SMILES	activity change, negative = inhibition	Potency
CC(C)(C)OC(=O)C[C@@H]1C/C=C\C[C@H](CC(=O)N(CCO)Cc2ccccc2)C(=O)NC[C@@H](c2ccccc2)OC1=O	inactive: -10.9%	–
C=CCC[C@@H](Cc1ccc(F)cc1)C(=O)OC[C@@H](C)NC(=O)[C@@H](CC=C)CC(=O)N[C@H](CO)Cc1ccccc1	inactive: -24.6%	–
Cc1ccc(CNC(=O)CCC(=O)N2CC(C)Sc3ccccc32)cc1 (configuration not stated)	inactive: 20.8%	–
Cc1ccc(NS(=O)(=O)c2ccc3c(c2)NC(=O)CCS3)c(Br)c1	inactive: -4.29%	–
COc1ccccc1N1CCN(CCCNC(=O)Cn2ncc3c([nH]c4ccccc43)c2=O)CC1	inactive: -15.1%	–
C/C=C1\COC(C(=O)NCc2ccncc2)(C(F)(F)F)C=C1C=C1CCCCC1 (configuration not stated)	inactive: -8.7%	–
COc1cc(NC(=O)CCS(=O)(=O)c2ccc3c(c2)n(C)c(=O)c(=O)n3C)cc(OC)c1	inactive: 12.2%	–
CCN(c1ccccc1C)S(=O)(=O)c1nnc(NC(=O)c2ccco2)s1	inactive: 5.95%	–
O=C(Cn1cccc1C(=O)c1ccccc1)NCc1ccccc1Cl	inactive: 83.3%	–
CCOC(=O)[C@@H]1[C@H]2COc3cc(OC)ccc3[C@@H]2N2C(=O)N(c3ccc(C(F)(F)F)cc3)C(=O)[C@@]12C	inactive: 4.84%	–
Cc1ccc(S(=O)(=O)/N=C2/NC(=O)/C(=C/c3ccccc3)S2)cc1	inactive: -13.8%	–
CCOC(=O)c1sc(NC(=O)c2cc(-c3ccccc3)nc3ccccc23)c(C#N)c1C	–	active: 4.61 µM
CN(C)c1ccc(-c2cc(C3C4C=CCCC4(C)C(=O)N3Cc3ccccc3)ccc2F)cc1 (configuration not stated)	inactive: -21.9%	–
Cc1nn(-c2ccccc2)c(N2CCCC2)c1/C=N/n1cnc2scc(-c3ccccc3)c2c1=O	inactive: -4.11%	–
O=C(NCCc1ccc(Cl)cc1)c1ccc(CS(=O)Cc2ccccc2Cl)o1 (configuration not stated)	inactive: -11.1%	–
CCSc1ccc([C@@H]2[C@@H]3C(=O)N(C)C(=O)[C@@H]3[C@]3(C(=O)OC)CCCCN23)cc1	inactive: -20.6%	–
O=C(c1cc(S(=O)(=O)N2CCN(c3ccccc3)CC2)ccc1Cl)N1CCCC(C(F)(F)F)C1 (configuration not stated)	–	active: 4.61 µM
Cc1c(Cl)cccc1Nc1ncccc1C(=O)O	inactive: 23%	–
O=C(NCc1cccnc1)/C(=C/c1ccc(-c2cccc(Cl)c2)o1)S(=O)(=O)c1ccccc1	inactive: 12.5%	–
C=CC[C@@H](CC(=O)N[C@@H](CO)Cc1ccccc1)C(=O)N[C@H](COC(=O)[C@@H](CC=C)CC(=O)OC(C)(C)C)Cc1ccccc1	inactive: 0.939%	–
CC(CNS(=O)(=O)c1ccc2c(c1)CC(=O)N2C)c1ccccc1 (configuration not stated)	inactive: 9.98%	–
Cc1cc(C)c2oc(C(=O)Nc3ccc(S(=O)(=O)N4CCC(C)CC4)cc3)cc(=O)c2c1	inactive: -27.6%	–

SMILES	activity change, negative = inhibition	Potency
C[C@H](NC(=O)c1nc[nH]c1C(=O)N1CCN(c2ccccc2)CC1)c1ccccc1	inactive: -1.39%	–
COc1ccc(OC)c(-c2nnc3n2N=C(c2ccc(OC)c(OCC4CC4)c2)CS3)c1	–	active: 14.6 µM
CC(=O)c1cn(CCOc2cc(C)ccc2C)c2ccccc12	–	active: 6.51 µM
CCc1cc(C(N)=S)ccn1	inactive: 0.309%	–
Cc1ccc(-c2nnc(-c3ccc(NC(=O)Cc4cccs4)cc3)o2)cc1	–	active: 9.2 µM
OCC[C@@H]1C[C@@H](O)[C@H](O)[C@@]2(Cc3ccccc3CO2)O1	inactive: 12.6%	–
COc1ccc(NC(=O)C2CCCN(S(=O)(=O)c3ccc4c(c3)oc(=O)n4C)C2)c(OC)c1 (configuration not stated)	inactive: -14.9%	–
CCc1ccc(NS(=O)(=O)c2c(C)nc3sc(CC)nn3c2=O)cc1	inactive: -2.98%	–
CCOC(=O)/C(=C\C=C1/Sc2cc(OCC)c(OCC)cc2N1CC)C(C)=O	inactive: -22.9%	–
C[C@H](CO)N1C[C@H](C)[C@@H](CN(C)S(=O)(=O)c2ccccc2)Oc2ccc(NC(=O)C3CCCCC3)cc2C1=O	inactive: 6.33%	–
O=C(CSc1ccc(-c2ccccn2)nn1)Nc1ccc(F)cc1F	inactive: -21.4%	–
CCOC(=O)CNc1nc(C#N)nc(N2CCOCC2)n1	inactive: 1.3%	–
C[C@H]1CCC[C@]2(O[C@@H](CCO)C[C@@H](O)[C@@H]2O)O1	inactive: 3.68%	–
COc1cc2c(=O)n(CCC(=O)NCC3CCCO3)c(=O)n(CC(=O)Nc3ccc(C)cc3C)c2cc1OC (configuration not stated)	inactive: 4.46% [at 9.27 µM]	–
CS(=O)(=O)c1ccc(C(=O)Nc2cc(-c3ccccc3)nn2-c2ccccc2)cc1	–	active: 14.6 µM
Cc1oc(-c2ccccc2)cc1C(=O)Nc1cccc(/C=C\C(=O)O)c1	inactive: -13.5%	–
CCc1nn2c(=O)c(S(=O)(=O)Nc3ccc(C(C)C)cc3)c(C)nc2s1	inactive: -19.6%	–
CCOc1ccc(Cn2c(=O)sc3ccccc32)cc1	inactive: 3.51%	–
COc1ccc(C(=O)Nc2cccc(/C=C(\CCC(=O)O)c3nc4ccccc4s3)c2)cc1	inactive: 2.58%	–
CCn1cc(C(=O)N2CCN(c3ccccc3)CC2)c(=O)c2cc(S(=O)(=O)N3CCOCC3)ccc21	inactive: -11.5%	–
C=CCC[C@@H](Cc1ccc(F)cc1)C(=O)OC[C@@H](Cc1c[nH]c2ccccc12)NC(=O)[C@@H](CC=C)CC(=O)N[C@@H](CO)Cc1ccccc1	inactive: 7.77%	–
COc1cccc(N2CCN(C(=O)c3cc4c(s3)-c3ccccc3OC4)CC2)c1	inactive: -11.5%	–

SMILES	activity change, negative = inhibition	Potency
CC(C)COc1ccc(C(=O)N(CC(=O)Nc2ccccc2C(F)(F)F)Cc2ccco2)cc1	–	active: 18.4 µM
Cc1cc2[nH]c(=O)c(=O)[nH]c2cc1S(=O)(=O)N1CCN(c2ccccc2F)CC1	inactive: -6.16%	–
O=C(NCc1ccc(Cl)cc1)N1CCN(Cc2ccccc2)CC1	–	active: 23.1 µM
C=CC[C@@H](CC(=O)N[C@@H](CO)Cc1ccccc1)C(=O)N[C@@H](C)COC(=O)[C@@H](CC=C)Cc1ccc(F)cc1	inactive: -0.849%	–
O=C(C1CCN(c2ncnc3c2nc2n3CCCCC2)CC1)N1CCN(c2ccc(F)cc2)CC1	inactive: 1.97%	–
CCCN(CCC)CCNC(=O)c1cc2c(-c3ccc(Cl)cc3)nn(C)c2s1	inactive: 7.07%	–
COC(=O)C1=C(C)NC(C)=C([N+](=O)[O-])C1c1ccccc1C(F)(F)F (configuration not stated)	inactive: -24%	–
C=C1CCN(C(CC(C)C)C(=O)OC)S(=O)(=O)c2ccccc21 (configuration not stated)	inactive: -2.38%	–
CC(=O)Oc1ccc(C(=O)Nc2cccc(-c3nnc(-c4ccco4)o3)c2)cc1	–	active: 16.4 µM
CC1=C(C(=O)OCc2ccc3c(c2)OCO3)C(c2ccccc2)NC(=O)N1 (configuration not stated)	–	active: 8.2 µM
O=C1c2ccccc2-c2nc3ccccc3n21	inactive: 11.3%	–
CCCCCn1c(=O)[nH]c2cc(C(=O)N3CCN(c4ccccc4F)CC3)ccc2c1=O	inactive: 1.67% [at 9.27 µM]	–
CC1=C(C(=O)OCc2ccc3c(c2)OCO3)C(c2ccccc2OCc2ccccc2)NC(=O)N1 (configuration not stated)	–	active: 13 µM
C[C@H](NC(=O)c1[nH]cnc1C(=O)Nc1ccc(Cl)cc1)c1ccccc1	–	active: 18.4 µM
CN=C1SC(CC(=O)NCCc2ccc(OC)c(OC)c2)C(=O)N1C (configuration not stated)	inactive: 11.7%	–
COc1ccccc1NC(=O)Cn1nnc(C(=O)NCc2ccc3c(c2)OCO3)c1N	inactive: 2.8%	–
Cc1ccc(Nc2c(-c3ccco3)nc3nc(C)cc(C)n23)cc1	inactive: 7.14%	–
O=C(NCCCn1ccnc1)/C(=C/c1cccnc1)NC(=O)c1ccco1	inactive: 15.8%	–
COc1cc(/C=C2\SC(=S)N(CC(=O)O)C2=O)ccc1OC(=O)c1ccco1	inactive: -11.4%	–
CC1CC=CC2C1C(=O)N(Cc1ccccc1)C2c1ccc2ccccc2c1Br (configuration not stated)	inactive: -25.7%	–
COc1ccc(C2=Nn3c(nnc3-c3ccccc3OC)SC2)cc1OC	–	inactive
CCOC(=O)c1cc2c(=O)n3ccccc3nc2n(CC(C)C)c1=NC(=O)c1c(-c2c(F)cccc2Cl)noc1C	inactive: -5.78% [at 9.27 µM]	–

SMILES	activity change, negative = inhibition	Potency
O=C(Nc1ccc(C(=O)N2CCCc3ccccc32)cc1)c1cccs1	–	active: 20.6 µM
COc1ccccc1Nc1cc(C(=O)NC2CCCC2)c2ccccc2n1	inactive: 2.21%	–
CC1(C)CCc2cc(S(=O)(=O)N3CCN(S(=O)(=O)c4c(F)cccc4F)CC3)ccc2O1	–	inactive
O=C1OC[C@H]2CCCN2C(=O)[C@@H](CC(=O)N(CCO)Cc2ccccc2)C/C=C\CC[C@H]1Cc1ccc(F)cc1	inactive: -8.1%	–
Cc1ccc(CCNC(=O)CCS(=O)(=O)c2ccc3c(c2)oc(=O)n3C)cc1	inactive: 1.34%	–
Cc1ccc(-c2nnc(NC3CCCCC3)c3ccccc23)cc1S(=O)(=O)N1CCN(C)CC1	–	active: 23.1 µM
CCCCN(CC)CCNC(=O)c1nn(-c2ccc(OC)cc2)c(=O)c2c1c1ccccc1n2C	inactive: 15.4%	–
Cc1ccc(NC(=O)CCNS(=O)(=O)c2cccs2)cc1F	inactive: 5.52% [at 9.27 µM]	–
CCCCCCSc1ccc([C@@H]2[C@H]3C(=O)N(C)C(=O)[C@H]3[C@]3(C(=O)OC)CCCCN23)cc1OC	inactive: -11.5%	–
CN(C)c1ccc(/C=C(/C#N)C(=O)Nc2nc3c(s2)CCN(Cc2ccccc2)C3)cc1	inactive: -2.72%	–
O=C(CN1C(=O)S/C(=C\C=C\c2ccccc2)C1=O)Nc1ccc(C(=O)O)cc1	inactive: 0%	–
CC(C)[C@H](Nc1ccc(C(F)(F)F)cc1[N+](=O)[O-])C(=O)O	inactive: 5.44%	–
CCO[C@H]1OC(C(=O)N2CCN(Cc3ccc4c(c3)OCO4)CC2)=C[C@@H](C)[C@@H]1CCCO	inactive: 9%	–
CCc1ccc2[nH]c(=O)c(C3C(C#N)=C(N)Oc4c3ccc3cccnc43)cc2c1 (configuration not stated)	–	active: 14.6 µM
O=C1NC[C@H](c2ccccc2)OC(=O)[C@H](Cc2ccc(F)cc2)C/C=C\C[C@H]1CC(=O)N(CCO)Cc1ccccc1	inactive: -19.1%	–
O=C1OC(c2ccccc2)(c2ccccc2)N2CCN(C(=O)NCc3ccc(F)cc3)CC12 (configuration not stated)	inactive: -29.2%	–
C=CCOC(=O)/C(=C\c1cccc2ccccc12)NC(=O)c1ccccc1	inactive: 3.51%	–
Cc1ccc(NC(=O)CCc2c(C)nn(-c3ccc(N4CCCCC4)nn3)c2C)cc1F	inactive: 15.5%	–
Cc1ccc(NC(=O)CCn2c(=O)c3cccn3c3ccccc32)cc1C	inactive: -18.2%	–
N#C/C(=C\C=C\c1ccccc1)C(=O)Nc1ccccc1	inactive: 0.398%	–
COC(=O)C1=C(C)NC(C)=C(C(=O)OC)C1C(=O)OC(C)C(=O)c1ccccc1 (configuration not stated)	inactive: -5.88%	–
